Laboratory results published in PMC7819943, “Rice protein-binding microarrays: a tool to detect cis-acting elements near promoter regions in rice”.
Some of the results follow.

biological target: T1, OsWOX13 (Oryza sativa, UniProt Q5QMM3 1-267); assay: protein-binding microarray (RPBM); PBS, 2% BSA, 51.3 ng/ul salmon testes DNA, 50 uM zinc acetate, 200 nM TF, 25 C, 1 h; high values mean tight binding; settings: protein: recombinant; tags: N-terminal polyhistidine and DsRed monomer fusion (pET32a); label: CyDye5-dUTP incorporated in the synthesized complementary strand; 3' TTTTT single-stranded linker to array surface; dsDNA, one strand shown
T1 sequence: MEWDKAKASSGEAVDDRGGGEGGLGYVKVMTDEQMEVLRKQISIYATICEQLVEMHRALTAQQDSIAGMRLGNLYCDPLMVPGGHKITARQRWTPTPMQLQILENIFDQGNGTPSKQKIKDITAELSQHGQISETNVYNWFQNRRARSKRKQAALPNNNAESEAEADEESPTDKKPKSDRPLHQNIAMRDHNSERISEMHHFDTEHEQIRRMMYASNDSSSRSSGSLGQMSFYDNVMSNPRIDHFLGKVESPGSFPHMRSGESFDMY
How it was run: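 An Axon 4000B scanner gave the binding signal as per-feature fluorescence intensity in arbitrary units. This followed washing of a custom Agilent array that had been incubated for 1 h at 25 °C with 200 nM protein in PBS, 2% BSA, salmon testes DNA and 50 µM zinc acetate. The proteins were transcription factors fused at the N-terminus to polyhistidine and DsRed, expressed in E. coli BL21-CodonPlus and purified on Ni–NTA.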

Row | Sequence | binding signal
1 | CTTTAATCAAAATCAAAACGTTTTGAAACAAAGAGTACATCGGAGTCACCTAGTGCAG | 4430 fluorescence intensity (a.u.)
2 | CAATTGTACACCCAACTAATTAATGTATACATGCATGATTCGGAGTCACCTAGTGCAG | 3380 fluorescence intensity (a.u.)
3 | GATTTGATTTAAATCTTGAATAAATTTAATAAAATCCTATCGGAGTCACCTAGTGCAG | 10000 fluorescence intensity (a.u.)
4 | GGTTTATAATCTACTTTTAATTATTTGGATAATTTATTTCCGGAGTCACCTAGTGCAG | 12800 fluorescence intensity (a.u.)
5 | GTGTGACAGTGTGACAGATGTGCATCATGTGGGTCACAAACGGAGTCACCTAGTGCAG | 5070 fluorescence intensity (a.u.)
6 | GATTTAATAAAACTAATTTGATATTCAAAGTGTTGCTATTCGGAGTCACCTAGTGCAG | 8280 fluorescence intensity (a.u.)
7 | AGGAAATTTTCACAAACTAATAATGTTTATAAGCCATACTCGGAGTCACCTAGTGCAG | 3150 fluorescence intensity (a.u.)
8 | ACAGTTCCTTTGTGCCAATCATTGAACCCGGGAATGCTGGCGGAGTCACCTAGTGCAG | 4780 fluorescence intensity (a.u.)
9 | GAAAATGCTTAATTAGTAGGGATTATTGAATCACATGCTTCGGAGTCACCTAGTGCAG | 23000 fluorescence intensity (a.u.)
10 | CATCGCAGTGGATTGACATGCTGACCACAAGCCCTCCTGTCGGAGTCACCTAGTGCAG | 6000 fluorescence intensity (a.u.)
11 | TCACCGTGATTAGTCTCACCCCTAGTTTAGCTTAATGAACCGGAGTCACCTAGTGCAG | 27800 fluorescence intensity (a.u.)
12 | TGTTGAATGAAAATTTGTAGAATTCAACAAATTGTAAATGCGGAGTCACCTAGTGCAG | 4440 fluorescence intensity (a.u.)
13 | CGCCGTTGATTGGTTCCCCTCTGCCGCTGTCGCGAGGAAGCGGAGTCACCTAGTGCAG | 34900 fluorescence intensity (a.u.)
14 | TAAGCCTAATTAATCCATAATTAGAGAATGTTTACTGTAGCGGAGTCACCTAGTGCAG | 40100 fluorescence intensity (a.u.)
15 | ACGGTCACTAAATTAAAATATTTGTTGTTGGTGTCTCACGCGGAGTCACCTAGTGCAG | 3670 fluorescence intensity (a.u.)
16 | AACTAATCACAATCATTTTCTATTTTGATTTCATCATCTACGGAGTCACCTAGTGCAG | 18400 fluorescence intensity (a.u.)
17 | TCTGATTTGCTTCCTCCGCGAACCGGTCGTCTTCTCCAGCCGGAGTCACCTAGTGCAG | 28200 fluorescence intensity (a.u.)
18 | AGTTCCTGCCTAATTGACTTACGCTGACTCTGTCAATATCCGGAGTCACCTAGTGCAG | 18900 fluorescence intensity (a.u.)
19 | TTTAAATTTAAGTTGAAATGTTAAACAAATCGTTTGCAATCGGAGTCACCTAGTGCAG | 6110 fluorescence intensity (a.u.)
20 | AAATTGAAAATTTGGTTGAAATTGAAACGATGTGACGAAACGGAGTCACCTAGTGCAG | 3900 fluorescence intensity (a.u.)
21 | TGAAACAATTTATTAATTGAGTTTTGAGTGGATCTAAGAACGGAGTCACCTAGTGCAG | 23600 fluorescence intensity (a.u.)
22 | ATATGTAATTTGTTTTGTTTTAGTCTACGTTTAATAGTTCCGGAGTCACCTAGTGCAG | 6560 fluorescence intensity (a.u.)
23 | ACTTCCAATTTTGACGTGAATTAAACACAGCCTACATCTCCGGAGTCACCTAGTGCAG | 5840 fluorescence intensity (a.u.)
